Results as given in the supplement of paper PMC10441789.
The list shows a part of the results. Antibody binding of pooled human sera (four to six donors per pool; dilution not stated) to peptides of the Trypanosoma cruzi antigen TSSA on microarrays. Quantile-normalised fluorescence in arbitrary units, mean of duplicate arrays; higher = more binding. No active / inactive call. The uninfected pools are read here as the healthy donors of the same country. The strongest signals lie near the top of the scale (about 60,000).

Key:
Assay in all cases: antibody binding signal (normalised fluorescence) (arbitrary fluorescence units); higher = stronger serum antibody binding to peptide
[1] = test system: pooled sera of chronic Chagas disease patients, Bolivia
Description: (§1)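 Microarray of 15-residue peptides over residues 30-55 of Trypanosoma cruzi TSSAII, each with 1 to 10 substitutions at naturally variable positions, probed with one serum pool per country.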

[2] = test system: pooled sera of chronic Chagas disease patients, Brazil
Description: as §1

[3] = test system: pooled sera of chronic Chagas disease patients, Colombia
Description: as §1

[4] = test system: pooled sera of chronic Chagas disease patients, Mexico
Description: as §1

[5] = test system: pooled sera of chronic Chagas disease patients, USA
Description: as §1

[6] = test system: pooled sera of uninfected people, Argentina
Description: as §1

[7] = test system: pooled sera of uninfected people, Bolivia
Description: as §1

[8] = test system: pooled sera of uninfected people, Brazil
Description: as §1

[9] = test system: pooled sera of uninfected people, Colombia
Description: as §1

[10] = test system: pooled sera of uninfected people, Mexico
Description: as §1

[11] = test system: pooled sera of uninfected people, USA
Description: as §1

Sequence | antibody binding signal [1] | antibody binding signal [2] | antibody binding signal [3] | antibody binding signal [4] | antibody binding signal [5] | antibody binding signal [6] | antibody binding signal [7] | antibody binding signal [8] | antibody binding signal [9] | antibody binding signal [10] | antibody binding signal [11]
GKENKTATGETPSPP | 2200 | 16600 | 14000 | 12200 | 21000 | 469 | 276 | 134 | 181 | 264 | 607
GKEKKTATGGAPSPP | 216 | 459 | 4150 | 2850 | 2390 | 206 | 113 | 111 | 62.2 | 100 | 118
ENKPAAGGAPSQPGA | 4710 | 24400 | 1600 | 417 | 2560 | 326 | 336 | 304 | 245 | 288 | 367
TPPSGKDNKAATGET | 2740 | 2710 | 291 | 25800 | 4120 | 207 | 700 | 194 | 331 | 122 | 106
PPSGKDNKPATGETP | 20800 | 33500 | 346 | 14600 | 32600 | 632 | 785 | 515 | 271 | 1950 | 264
TEKKPAAGGAPSPSG | 224 | 572 | 6540 | 596 | 1880 | 212 | 226 | 395 | 118 | 239 | 1160
GTDKKPAAGETPSQS | 1480 | 11200 | 6880 | 565 | 1500 | 111 | 331 | 479 | 683 | 882 | 156
KENKAATGETPSQSG | 769 | 24600 | 223 | 227 | 12400 | 139 | 208 | 129 | 145 | 194 | 217
EKKPAAGEAPSQSGA | 6130 | 19800 | 511 | 312 | 15000 | 114 | 1120 | 161 | 107 | 212 | 987
GTEKKAATGGTPSPP | 437 | 486 | 2370 | 1720 | 1710 | 260 | 591 | 585 | 1210 | 110 | 173
GTDNKPAAGGAPSQP | 2260 | 43800 | 2250 | 350 | 734 | 224 | 678 | 489 | 230 | 501 | 162
KDNKTATGETPSPPG | 361 | 2610 | 2220 | 187 | 7090 | 504 | 298 | 230 | 291 | 151 | 1520
GTDKKTATGGAPSPP | 723 | 691 | 4100 | 1420 | 1310 | 319 | 267 | 106 | 121 | 299 | 123
KDKKAATGGTPSQPG | 490 | 214 | 502 | 499 | 439 | 293 | 77.2 | 237 | 240 | 178 | 91.9
PSGKENKAAAGGAPS | 1770 | 12100 | 14300 | 11400 | 9500 | 5400 | 1630 | 115 | 514 | 218 | 164
PSGTENKAAAGGAPS | 23800 | 44900 | 7300 | 6890 | 11200 | 1280 | 757 | 503 | 507 | 662 | 406
KKAATGETPSQSGAS | 1430 | 15100 | 152 | 150 | 8280 | 365 | 261 | 104 | 305 | 127 | 410
DKKAAAGGTPSPPGA | 168 | 190 | 4940 | 355 | 1520 | 142 | 92.2 | 1750 | 164 | 96.3 | 146
PPSGTEKKTATGGAP | 1160 | 15700 | 960 | 2390 | 3530 | 1650 | 545 | 154 | 337 | 207 | 417
TENKPAAGGAPSPPG | 1030 | 3680 | 1100 | 630 | 1130 | 288 | 340 | 245 | 203 | 190 | 294
TDNKTATGGTPSQSG | 1050 | 864 | 752 | 513 | 649 | 445 | 330 | 552 | 171 | 560 | 160
ENKAAAGGAPSPPGA | 1250 | 1590 | 4160 | 334 | 1170 | 274 | 168 | 197 | 265 | 162 | 384
TISTPPSGTENKTAT | 51100 | 50800 | 349 | 4130 | 27300 | 3940 | 637 | 366 | 993 | 695 | 602
TEKKTATGGTPSPSG | 838 | 785 | 6050 | 816 | 1910 | 299 | 209 | 420 | 1070 | 263 | 284
ENKAAAGGTPSPSGA | 1430 | 317 | 4290 | 318 | 1240 | 193 | 209 | 2260 | 478 | 159 | 157

Sequence | antibody binding signal [1] | antibody binding signal [2] | antibody binding signal [3] | antibody binding signal [4] | antibody binding signal [5] | antibody binding signal [6] | antibody binding signal [7] | antibody binding signal [8] | antibody binding signal [9] | antibody binding signal [10] | antibody binding signal [11]
GKEKKTAAGGTPSPP | 248 | 414 | 4270 | 2620 | 2940 | 109 | 92.3 | 296 | 147 | 131 | 86.2
PSGTEKKPATGGAPS | 3180 | 15700 | 5790 | 6700 | 7450 | 790 | 1220 | 331 | 395 | 298 | 662
GTDKKTAAGETPSQP | 1340 | 25100 | 1270 | 442 | 1520 | 121 | 352 | 154 | 1110 | 179 | 108
DNKTAAGGAPSQPGA | 1910 | 4040 | 4730 | 550 | 299 | 268 | 423 | 399 | 349 | 850 | 265
PPSGKENKAATGEAP | 32300 | 28200 | 956 | 1820 | 28600 | 2840 | 1930 | 309 | 1300 | 249 | 349
GKDNKPATGGTPSPS | 382 | 936 | 1230 | 1920 | 2090 | 292 | 696 | 172 | 245 | 129 | 106
GTENKPATGETPSQS | 36500 | 38500 | 1900 | 2920 | 29600 | 478 | 1130 | 448 | 185 | 1920 | 152
TPPSGKENKAATGGT | 897 | 1810 | 571 | 2430 | 3020 | 2930 | 1250 | 877 | 584 | 179 | 390
PPSGTENKTAAGGAP | 37900 | 47100 | 2730 | 6900 | 10200 | 2190 | 899 | 513 | 775 | 426 | 1120
GKDNKPATGEAPSPP | 25100 | 49300 | 2320 | 3330 | 41700 | 1080 | 972 | 209 | 294 | 307 | 137
GKEKKAATGEAPSPS | 3460 | 16700 | 4210 | 5360 | 19100 | 338 | 81.6 | 87 | 225 | 76.2 | 92.4
TSSTPPSGTDNKAAT | 45600 | 50200 | 1130 | 9930 | 20000 | 1040 | 606 | 1550 | 179 | 271 | 362
PPSGKEKKAAAGEAP | 607 | 2450 | 2000 | 5690 | 6300 | 407 | 496 | 112 | 234 | 92 | 157
TPPSGTEKKPAAGEA | 37500 | 41700 | 434 | 17400 | 7580 | 1060 | 612 | 940 | 215 | 212 | 293
GKENKTAAGGAPSPP | 277 | 2240 | 4750 | 1620 | 7200 | 369 | 108 | 673 | 122 | 165 | 124
SGTEKKTAAGGTPSQ | 238 | 959 | 16300 | 1110 | 2550 | 189 | 412 | 881 | 224 | 613 | 218
TPPSGKEKKTATGGT | 620 | 647 | 686 | 20300 | 1670 | 349 | 291 | 427 | 151 | 130 | 155
DKKTATGETPSPPGA | 487 | 1150 | 251 | 274 | 6860 | 259 | 172 | 207 | 128 | 283 | 400
EKKAATGEAPSQSGA | 21000 | 32000 | 300 | 678 | 23800 | 815 | 730 | 134 | 965 | 287 | 969
TDNKPAAGGTPSPSG | 243 | 1030 | 1390 | 196 | 200 | 105 | 574 | 1040 | 575 | 360 | 115
GKENKPAAGGAPSPP | 256 | 4780 | 2800 | 2670 | 7010 | 568 | 170 | 115 | 127 | 139 | 129
KENKPATGGAPSPPG | 986 | 3020 | 213 | 709 | 2920 | 373 | 848 | 132 | 118 | 115 | 150
SGTDNKPATGETPSP | 34500 | 47000 | 1300 | 269 | 22500 | 251 | 738 | 328 | 260 | 1930 | 957
TISTPPSGTDKKTAT | 6550 | 33000 | 5810 | 49800 | 3570 | 371 | 113 | 244 | 164 | 1110 | 161
